From a collection of fitness landscapes (doi:10.1016/j.celrep.2020.107928)
Over roughly 81,000 sequences, “one-hybrid fitness for binding parS DNA” has its median near -0.17; the highest 2% begin near 0.51. Some of the results follow.

B1: Caulobacter ParB omega fusion; a variant is named by its letters at X, in order, B8GW30 (parent)
chain: MESVVVGEPGMSEGRRGLGRGLSALLGEVDAAPAQAPGEQLGGSREAPIEILQRNPDQPRRTFREEDLEDLSNSIREKGVLQPILVRPSPDTAGEYQIVAGERAWRAAQRAGLKTVPIMVRELDDLAVLEIGIIENVQRADLNVLEEALSYKVLMEKFERTQENIAQTIGKSXSHVANXMRLLXLPDEVQSYLVSGELTAXHARAIAAAADPVALAKQIIEGGLSVRETEALARKAPNLSAGKSKGGRPPRVKDTDTQALESDLSSVLGLDVSIDHRGSTGTLTITYATLEQLDDLCNRLTRGI

Variants of: B1
Experiment: one-hybrid fitness for binding parS DNA (scaled: cognate 1, non-cognate 0); higher = stronger binding
Settings: with parS DNA site
How it was run: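 On M9-minus-histidine containing 0.1 mM IPTG and 5 mM 3-AT, E. coli USO cells with a HIS3 reporter, site 19 bp from the promoter, grew 48 hours at 37°C to select Caulobacter ParB libraries randomised at four specificity codons. Plasmids from before and after were Illumina-sequenced, with three replicate libraries pooled and variants under 10 reads left out. Fitness is the log change in variant-to-wild-type read ratio, rescaled against cognate and non-cognate.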

Variant | one-hybrid fitness for binding parS DNA
VAPS | ≤ 0.2
HFRT | ≤ 0.2
QWVM | ≤ 0.2
ECHA | ≤ 0.2
GLKN | ≤ 0.2
QATN | ≤ 0.2
HPIY | ≤ 0.2
CEVL | ≤ 0.2
EFKR | ≤ 0.2
VTRM | ≤ 0.2
QPNI | ≤ 0.2
SGLV | ≤ 0.2
HVNV | ≤ 0.2
HCEV | ≤ 0.2
YQPR | ≤ 0.2
YSAR | ≤ 0.2
RWCF | ≤ 0.2
PSPS | ≤ 0.2
NRTD | ≤ 0.2
LGKA | ≤ 0.2
SHSY | ≤ 0.2
MGER | ≤ 0.2
CFHL | ≤ 0.2
LHDT | ≤ 0.2

Variant | one-hybrid fitness for binding parS DNA
PAGL | ≤ 0.2
DTQS | ≤ 0.2
YSYR | ≤ 0.2
PAIL | ≤ 0.2
RNYG | 0.789
NHSW | ≤ 0.2
LVWA | ≤ 0.2
HTMS | ≤ 0.2
KRFW | ≤ 0.2
YVNI | ≤ 0.2
QQRL | ≤ 0.2
TSAC | ≤ 0.2
TTSG | ≤ 0.2
AIKK | ≤ 0.2
SIGI | ≤ 0.2
PYRD | ≤ 0.2
TKYS | ≤ 0.2
YTPM | ≤ 0.2
KKRF | ≤ 0.2
MIRN | ≤ 0.2
RIVE | ≤ 0.2
TIKF | ≤ 0.2
SYCE | ≤ 0.2
HNPL | ≤ 0.2

Variant | one-hybrid fitness for binding parS DNA
ESDI | ≤ 0.2
APTS | ≤ 0.2
PPGM | ≤ 0.2
EGGH | ≤ 0.2
PQQR | ≤ 0.2
DQRC | ≤ 0.2
LELA | ≤ 0.2
QLVT | ≤ 0.2
PTKV | ≤ 0.2
KCFF | ≤ 0.2
QDQS | ≤ 0.2
QMRV | ≤ 0.2
HALA | ≤ 0.2
KTHG | ≤ 0.2
NVKC | ≤ 0.2
EWKD | ≤ 0.2
TQMT | ≤ 0.2
STGQ | ≤ 0.2
YCRC | ≤ 0.2
CGVT | ≤ 0.2
HTHG | ≤ 0.2
NGDG | ≤ 0.2
QMKA | ≤ 0.2
PADW | ≤ 0.2

Variant | one-hybrid fitness for binding parS DNA
LHKT | ≤ 0.2
TYFP | ≤ 0.2
SKGV | ≤ 0.2
HRKA | ≤ 0.2
QYDH | ≤ 0.2
SCIG | ≤ 0.2
KTRG | ≤ 0.2
IETT | ≤ 0.2
FVLC | ≤ 0.2
SHAR | ≤ 0.2
DVHS | ≤ 0.2
AFTM | ≤ 0.2
SNKD | ≤ 0.2
IHAA | ≤ 0.2
NISC | ≤ 0.2
TSHI | ≤ 0.2
RVEV | ≤ 0.2
PNRS | ≤ 0.2
DNAI | ≤ 0.2
YADL | ≤ 0.2
QPCG | ≤ 0.2
TVTH | ≤ 0.2
QPYC | ≤ 0.2
SSGT | ≤ 0.2

Variant | one-hybrid fitness for binding parS DNA
QFIR | ≤ 0.2
PWLR | ≤ 0.2
SLHM | ≤ 0.2
AAFS | ≤ 0.2
QKWV | ≤ 0.2
YGKS | ≤ 0.2
QQIC | ≤ 0.2
LHTS | ≤ 0.2
SASP | ≤ 0.2
EFTQ | ≤ 0.2
KRPA | ≤ 0.2
NCFT | ≤ 0.2
IHES | ≤ 0.2
PPQP | ≤ 0.2
QISA | ≤ 0.2
RKHS | 0.832
LSSA | ≤ 0.2
NFPC | ≤ 0.2
HNMF | ≤ 0.2
IVEN | ≤ 0.2
IDPI | ≤ 0.2
RNLS | 0.895
DIML | ≤ 0.2
QAGQ | ≤ 0.2

Variant | one-hybrid fitness for binding parS DNA
AVCR | ≤ 0.2
THVL | ≤ 0.2
TNEH | ≤ 0.2
LDKI | ≤ 0.2
SYQE | ≤ 0.2
VPLP | ≤ 0.2
TEPA | ≤ 0.2
KFIG | ≤ 0.2
KRLV | ≤ 0.2
CTIR | ≤ 0.2
LNKS | ≤ 0.2
NLYI | ≤ 0.2
CSIS | ≤ 0.2
PADA | ≤ 0.2
KWFG | ≤ 0.2
SCPL | ≤ 0.2
RINL | ≤ 0.2
LYYF | ≤ 0.2
MNIT | ≤ 0.2
MLYL | ≤ 0.2
CQYS | ≤ 0.2
KSDD | ≤ 0.2
AHLV | ≤ 0.2
KKLC | ≤ 0.2

Variant | one-hybrid fitness for binding parS DNA
RQHV | ≤ 0.2
QSQY | ≤ 0.2
WYHS | ≤ 0.2
EWYS | ≤ 0.2
EMKR | ≤ 0.2
DRVK | ≤ 0.2
RATI | ≤ 0.2
QRGW | ≤ 0.2
QSPM | ≤ 0.2
TRGK | ≤ 0.2
TVNI | ≤ 0.2
IFLD | ≤ 0.2
APNF | ≤ 0.2
LVTH | ≤ 0.2
DGFR | ≤ 0.2
NEGR | ≤ 0.2
TYND | ≤ 0.2
IAEL | ≤ 0.2
RNLM | ≤ 0.2
ADLN | ≤ 0.2
WNPS | ≤ 0.2
KRCC | ≤ 0.2
TYPT | ≤ 0.2
TTKY | ≤ 0.2

Variant | one-hybrid fitness for binding parS DNA
SVQW | ≤ 0.2
DSQR | ≤ 0.2
DPVI | ≤ 0.2
DADG | ≤ 0.2
FNEI | ≤ 0.2
NYTG | ≤ 0.2
AAEV | ≤ 0.2
KILA | ≤ 0.2
YWSC | ≤ 0.2
VPCR | ≤ 0.2
DIVG | ≤ 0.2
RLFP | ≤ 0.2
RCWT | 0.908
HGYG | ≤ 0.2
PLGT | ≤ 0.2
LTAF | ≤ 0.2
QTWD | ≤ 0.2
ADPL | ≤ 0.2
DGWS | ≤ 0.2
IETV | ≤ 0.2
NIVN | ≤ 0.2
SYNN | ≤ 0.2
ANDT | ≤ 0.2
TRRC | ≤ 0.2

Variant | one-hybrid fitness for binding parS DNA
TNYG | ≤ 0.2
TMMG | ≤ 0.2
WYER | ≤ 0.2
PKHH | ≤ 0.2
LTWM | ≤ 0.2
RPIK | ≤ 0.2
GKRC | ≤ 0.2
DHSS | ≤ 0.2
WCTR | ≤ 0.2
PAQP | ≤ 0.2
MARC | ≤ 0.2
NLDK | ≤ 0.2
WSDL | ≤ 0.2
QQEC | ≤ 0.2
NDNA | ≤ 0.2
MEPR | ≤ 0.2
ISTR | ≤ 0.2
RWAE | ≤ 0.2
EKQR | ≤ 0.2
GSDF | ≤ 0.2
TISW | ≤ 0.2
AFIM | ≤ 0.2
MPSK | ≤ 0.2
MSLR | ≤ 0.2

Variant | one-hybrid fitness for binding parS DNA
RNLT | 0.683
AIHS | ≤ 0.2
SQSV | ≤ 0.2
RKLK | ≤ 0.2
ENVC | ≤ 0.2
GDMV | ≤ 0.2
LGDI | ≤ 0.2
QFCA | ≤ 0.2
ILRG | ≤ 0.2
ACHA | ≤ 0.2
CAPL | ≤ 0.2
KSKA | ≤ 0.2
PMIG | ≤ 0.2
YQIT | ≤ 0.2
YFFS | ≤ 0.2
HCNI | ≤ 0.2
PPRD | ≤ 0.2
PMYN | ≤ 0.2
CTKR | ≤ 0.2
IDST | ≤ 0.2
RHCA | 0.55
LMKS | ≤ 0.2
RLFD | ≤ 0.2
LWKG | ≤ 0.2

Variant | one-hybrid fitness for binding parS DNA
TTFR | ≤ 0.2
AAFF | ≤ 0.2
TISI | ≤ 0.2
LRGG | ≤ 0.2
RPAA | ≤ 0.2
REWI | ≤ 0.2
ISCL | ≤ 0.2
KLFR | ≤ 0.2
CTQS | ≤ 0.2
ALPR | ≤ 0.2
QMVQ | ≤ 0.2
SHGW | ≤ 0.2
YSPG | ≤ 0.2
PRNN | ≤ 0.2
RVQI | ≤ 0.2
YRRA | ≤ 0.2
QRII | ≤ 0.2
ILNV | ≤ 0.2
VDSW | ≤ 0.2
QCDS | ≤ 0.2
KQDS | ≤ 0.2
QEQF | ≤ 0.2
RCWF | 0.363
ATKA | ≤ 0.2

Variant | one-hybrid fitness for binding parS DNA
EDSS | ≤ 0.2
LTLF | ≤ 0.2
CLKA | ≤ 0.2
RIEK | ≤ 0.2
WHMG | ≤ 0.2
RAAH | ≤ 0.2
KYES | ≤ 0.2
QSHP | ≤ 0.2
LVSM | ≤ 0.2
LPPT | ≤ 0.2
DLCL | ≤ 0.2
TNHK | ≤ 0.2
PCSR | ≤ 0.2
MLLS | ≤ 0.2
IWPT | ≤ 0.2
MLQH | ≤ 0.2
TMGT | ≤ 0.2
RSHQ | ≤ 0.2
CRNC | ≤ 0.2
VMDI | ≤ 0.2
QVMW | ≤ 0.2
HTLK | ≤ 0.2
YTWC | ≤ 0.2
VHTT | ≤ 0.2

Variant | one-hybrid fitness for binding parS DNA
KKSG | ≤ 0.2
SERC | ≤ 0.2
YIDG | ≤ 0.2
QSIL | ≤ 0.2
RASG | 1
TGAF | ≤ 0.2
HLAA | ≤ 0.2
NKDD | ≤ 0.2
EADR | ≤ 0.2
SISS | ≤ 0.2
GPQL | ≤ 0.2
IGQT | ≤ 0.2
SSYS | ≤ 0.2
YQMF | ≤ 0.2
CSQL | ≤ 0.2
RTNS | 0.874
PLFR | ≤ 0.2
DSRN | ≤ 0.2
